This is an account of results in the supplement of paper PMC10338343.

± gives the standard deviation. In all, about 3,700 sequences were measured (“pre-steady-state target cleavage rate”: median about 0.02, highest 2% from about 0.23 on). Only a part is listed here, and it is no random draw. Where only a bound is given, the exact number is not on record here.
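Further: 1 nM active piRISC with 0.1 nM target library at 33 °C single turnover.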

The subject of the test is MILI (PIWIL2) piRISC loaded with Kctd7 piRNA (26 nt). The experiment in a line: pre-steady-state target cleavage rate (min^-1); MIWI and MILI are mouse PIWI proteins and EfPiwi is from a freshwater sponge; tags in brackets are library labels; higher = faster piRNA-guided slicing of the target. The settings on record: guide: Kctd7 piRNA 5'p-UGUUAAUCUCUCAGAGAAGGUGACAG; auxiliary factor: 500 nM mouse GTSF1. The method, boiled down: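 At 33 °C in HEPES–potassium acetate buffer, a transcribed, DNA-blocked target RNA library […] was exposed for 0–8 or 0–960 min to 1 nM active affinity-purified piRISC carrying a single synthetic guide, with or without 500 nM GTSF1 partner protein. Uncleaved targets were sequenced and normalised to depth and to weakly complementary targets. With three trials pooled and k3 capped at 0.0001 min^-1, a burst-and-steady-state fit produced the pre-steady-state cleavage rate.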
In the case of UAGUGACUCACCGUUCUCUGAGAGAUUAACA, the “pre-steady-state target cleavage rate” value turned out to be 0.134 ± 0.0075. Then UAGUGACAGUGCUUCUCUGUGAGAUUAUCA, with 0.00569 ± 0.0016. Then UAGUGUGUCACCUUCUCUGAGACAUUAACA, with 0.146 ± 0.028; and UAGUGUCUCACCUUCUCUGAGAGAAUAACA, with 0.0906 ± 0.022; and UAGUGAGUCACCAACUCUGAGAGAUUAAGA, with 0.0573 ± 0.012. In the case of UAGUGACAGUGCUUCUUGAGAGAUUAACA, the “pre-steady-state target cleavage rate” value was found to be 0.00591 ± 0.0035.

For the sequence UAGUGAGUCACCUUCUCACAGAGAUUAACA, the “pre-steady-state target cleavage rate” value stood at 0.0181 ± 0.004. For the sequence UAGUGUGUGACCUUCUCUGAGAGAUUAACA, the “pre-steady-state target cleavage rate” value stood at 0.172 ± 0.014. UAGUGACUACACCUUCUCUGAGAGAUUAACA: the “pre-steady-state target cleavage rate” value stood at 0.149 ± 0.0088.

As to UAGUGUGUCGCCUUCUCUGAGAGAUUAACA, the “pre-steady-state target cleavage rate” value is 0.212 ± 0.018.

For the sequence UAGUGACACACCUUCACUGAGAGAUAAACA, the “pre-steady-state target cleavage rate” value was 0.0691 ± 0.018. The value for UAGUGACAGACCUUCUCUGAGAGAUUAAAA was 0.0931 ± 0.029. Consider UAGUGACAGUGCUUGUCUGUGAGAUUAACA, for which the “pre-steady-state target cleavage rate” value stood at 0.0125 ± 0.003.

As to UAGUGACAGUGGUACUCUGACAGAUUAACA, the “pre-steady-state target cleavage rate” value is less than 0.0001. Then UAGUGACACACCUUGCUCUGAGAGAUUAACA, with 0.0895 ± 0.018; and UAGUGUGUCACCUUCUCUGAGAGAUUAUCA, with 0.154 ± 0.023. Then UAGUGACACACGCUUCUCUGAGAGAUUAACA, with 0.1 ± 0.017; and UAGUGACAGUCCUUGUCUGAGACAUUAACA, with 0.0149 ± 0.0049. Consider UAGUGGGUCACCUUCUCUGAGAGAUUAACA, for which the “pre-steady-state target cleavage rate” value was found to be 0.175 ± 0.01. Consider UAGUGUGUCACCUUCUCUGAGCAGAUUAACA, for which the “pre-steady-state target cleavage rate” value was determined as 0.012 ± 0.0069. With UAGUGACAGUGGUUCUGUGAGUGAUUAACA, the “pre-steady-state target cleavage rate” value stood at 0.00342 ± 0.0022. For the sequence UAGUGACAGUCGUUCACUGAGAGAUUAACA, the “pre-steady-state target cleavage rate” value was found to be 0.0106 ± 0.0026. For the sequence UAGUGACUCACCUUCUCUGAGAGUAUAUGA, the “pre-steady-state target cleavage rate” value was 0.00757 ± 0.0043. As to UAGUGACAGUGGAAGUCUGAAGAGAUUAACA, the “pre-steady-state target cleavage rate” value is less than 0.0001. As to UAGUGACAGUGGAUCUCUGAGAGAUUUAACA, the “pre-steady-state target cleavage rate” value is less than 0.0001. Turning to UAGUCUGUGACCUUCUCUGACAGAUUAACA, the “pre-steady-state target cleavage rate” value amounted to 0.0291 ± 0.0039. The value for UAGUGACAGACGUUCUCUGAGAGAAUAACA was 0.00496 ± 0.0031.

As for UAGUGACUCACCUUCUCUGAGAGAUUCACA, the “pre-steady-state target cleavage rate” value worked out at 0.314 ± 0.091. Regarding UAGUGACACAGGUUCUCUGAGAGAUUAAGA, the “pre-steady-state target cleavage rate” value came to 0.00675 ± 0.0025. With UAGUGACAGACCUUCUCAGAGACAUUAACA, the “pre-steady-state target cleavage rate” value was 0.0257 ± 0.0085. Consider UAGUGUGACACCUUCACUGAGAGAUUAACA, for which the “pre-steady-state target cleavage rate” value came to 0.142 ± 0.018. The value for UAGUGACAGUGCUUCUGUGAGAGAUAAACA was 0.00917 ± 0.0028; that for UAGUGUGUGACCUUGUCUGAGAGAUUAACA was 0.0744 ± 0.014; that for UAGUGACACACCUUCUGCUGAGAGAUUAACA was 0.0166 ± 0.0089. Then UAGUGAGUCACCUUCUCUGAGAGAUGUAACA, with 0.312 ± 0.047. The value for UAGUGAGUCACGUUCUCUGUGAGAUUAACA was 0.0376 ± 0.0033; that for UAGUCUGGCACCUUCUCUGAGAGAUUAACA was 0.165 ± 0.04. UAGUGUGUCACCGUCUCUGAGAGAUUAACA: the “pre-steady-state target cleavage rate” value stood at 0.113 ± 0.012. The value for UAGUGAGUCAGCUUCUCUGAGAGAUAAACA was 0.0977 ± 0.026. On to UAGUGACACACCUUCAGAGAGAGAUUUUGA, for which the “pre-steady-state target cleavage rate” value amounted to 0.00547 ± 0.0054. The value for UAGUCAGUCACCUUCUCUCAGAGAUUAACA was 0.0669 ± 0.011.

As for UAGUGACUCACCUUCUCUGCGAGAUUAACA, the “pre-steady-state target cleavage rate” value was found to be 0.0816 ± 0.0094. Then UAGUCUGUCACCUACUCUGAGAGAUUAUGA, with 0.0285 ± 0.0078; and UAGUCUGUCACCUUCUCUGAGAGAAUAACA, with 0.193 ± 0.039. With UAGUGACAGACGUUCUCUGAGACAUUAACA, the “pre-steady-state target cleavage rate” value amounted to 0.00396 ± 0.0022. As to UAGUGACAGUGCUUCUCAGAGAGAUUAACA, the “pre-steady-state target cleavage rate” value came out at 0.00894 ± 0.0031. With UAGUGACACACCUUCUCUGAGAGAUUGACA, the “pre-steady-state target cleavage rate” value is 0.154 ± 0.024.

As for UAGUCUGUCACCUUCUCUGAGAUGAUUAACA, the “pre-steady-state target cleavage rate” value is 0.12 ± 0.0075. The value for UAGUGAGUCAGCUUCUCUGAGAGUUUAACA was 0.101 ± 0.024; that for UAGUGACUCACCUCUCUGAGAGAUUAACA was 0.0549 ± 0.0098; that for UAGUGUGUCACCUUGUCUGAGAGUUUAACA was 0.0303 ± 0.014. Then UAGUGAGUCACCUUCUGUGAGAGAAUAACA, with 0.025 ± 0.0073. With UAGUGUGUCACCUUCCUGAGAGAUUAACA, the “pre-steady-state target cleavage rate” value worked out at 0.133 ± 0.046.

Regarding “UAGUGACAGUGGAACUCUGAGUCUAAUUGA [g10:g16:cont:t1A]”, the “pre-steady-state target cleavage rate” value was 0.0578 ± 0.032. The value for UAGUGACACACCUUCUCUGAGAAAUUAACA was 0.219 ± 0.035; that for UAGUGAGUCACCUUCUCUGAGAGCUUAACA was 0.155 ± 0.026. For the sequence UAGUGACAGUGCUUCUCGGAGAGAUUAACA, the “pre-steady-state target cleavage rate” value was found to be 0.00937 ± 0.0027. The value for UAGUGUGUGACGUUCUCUGAGAGAUUAACA was 0.133 ± 0.012; that for UAGUGUGUCCCCUUCUCUGAGAGAUUAACA was 0.218 ± 0.018. For the sequence UAGUGAGUCACCAUCACUGAGAGAUUAACA, the “pre-steady-state target cleavage rate” value came to 0.176 ± 0.014.

Regarding UAGUGAGUCACCUACUCUGAGAGAUUAACA, the “pre-steady-state target cleavage rate” value stood at 0.215 ± 0.018. Then UAGUCACUCACCUUCUCUGAGAGAUUAUGA, with 0.0149 ± 0.0073; and UAGUGAGUCACCUUAUCUGAGAGAUUAACA, with 0.119 ± 0.015. On to UAGUCACACACCUUCUCUGAGAGAUUUUGA, for which the “pre-steady-state target cleavage rate” value worked out at 0.0392 ± 0.015. The value for UAGUGAGUCACCGUCUCUGAGAGAUUAACA was 0.151 ± 0.012. Then UAGUGACAGUCCUUCUCUGACAGAAUAACA, with less than 0.0001; and UAGUGAGUCACCUUCUCUGAGUGUUUAACA, with 0.0119 ± 0.006; and UAGUCUGUCAGCUUCUCUGUGAGAUUAACA, with 0.0393 ± 0.0027. Consider UAGUGAGUCACCUUCUCUGAGAGAUAAAGA, for which the “pre-steady-state target cleavage rate” value came to 0.00919 ± 0.0072. Then UAGUGACAGUGAUUCUCUGAGAGAUUAACA, with 0.00524 ± 0.0023; and “UAGUGACACACCUUCUCUGAGAGAUUAACU [g2:g22:cont:t1U]”, with 0.13 ± 0.014; and UAGUGACAGUGCUUCUCUGAUAGAUUAACA, with 0.00605 ± 0.0024.
